{"source": "the supplement of paper PMC8728848", "binders": {"B1": {"name": "CFEM-SCL (Saccharomyces cerevisiae), O13547 (protein)", "chain": "MRATTLLSSVVSLALLSKEVLATPPACLLACVAQVGKSSSTCDSLNQVTCYCEHENSAVKKCLDSICPNNDADAAYSAFKSSCSEQNASLGD"}}, "test_in_all_cases": "glycan array binding signal (z-score within array); higher = stronger binding", "conditions_in_all_cases": "glycan notation: IUPAC condensed, linker removed", "key": {"[1]": {"target": "Gal(b1-4)GlcNAc(b1-3)Gal(b1-4)GlcNAc(b1-3)[Gal(b1-4)GlcNAc(b1-3)Gal(b1-4)GlcNAc(b1-6)]GalNAc", "how_it_was_run": "(§1)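 Glycan array data were curated from 3228 arrays in the Consortium for Functional Glycomics database and kept only where the protein sequence was available. Glycan names were converted to IUPAC-condensed notation, and columns mapping to the same glycan were averaged. The binding signal is a within-array Z-score, averaged across arrays of the same protein sequence at different concentrations or buffers and across linkers. Negative Z-scores can be read as non-binding.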"}, "[2]": {"target": "Gal(b1-4)GlcNAc(b1-3)Gal(b1-4)GlcNAc(b1-6)[Gal(b1-3)]GalNAc", "how_it_was_run": "as §1"}, "[3]": {"target": "Gal(b1-4)GlcNAc(b1-3)Gal(b1-4)[Fuc(a1-3)]GlcNAc(b1-3)Gal(b1-4)[Fuc(a1-3)]GlcNAc", "how_it_was_run": "as §1"}, "[4]": {"target": "Gal(b1-4)GlcNAc(b1-3)GalNAc", "how_it_was_run": "as §1"}, "[5]": {"target": "Gal(b1-4)GlcNAc(b1-3)[Fuc(a1-3)GlcNAc(b1-6)]Gal(b1-4)Glc", "how_it_was_run": "as §1"}, "[6]": {"target": "Gal(b1-4)GlcNAc(b1-3)[Gal(b1-4)GlcNAc(b1-6)]Gal(b1-4)GlcNAc", "how_it_was_run": "as §1"}, "[7]": {"target": "Gal(b1-4)GlcNAc(b1-3)[GlcNAc(b1-6)]Gal(b1-4)GlcNAc", "how_it_was_run": "as §1"}, "[8]": {"target": "Gal(b1-4)GlcNAc(b1-6)Gal(b1-4)GlcNAc", "how_it_was_run": "as §1"}, "[9]": {"target": "Gal(b1-4)GlcNAc(b1-6)GalNAc", "how_it_was_run": "as §1"}, "[10]": {"target": "Gal(b1-4)GlcNAc(b1-6)[Gal(b1-3)]GalNAc", "how_it_was_run": "as §1"}, "[11]": {"target": "Gal(b1-4)GlcNAc(b1-6)[Gal(b1-4)GlcNAc(b1-3)]GalNAc", "how_it_was_run": "as §1"}, "Gal(b1-4)GlcNAc6P": {"target": "Gal(b1-4)GlcNAc6P", "how_it_was_run": "as §1"}, "Gal(b1-6)Gal": {"target": "Gal(b1-6)Gal", "how_it_was_run": "as §1"}, "Gal3S(b1-3)GalNAc": {"target": "Gal3S(b1-3)GalNAc", "how_it_was_run": "as §1"}, "Gal3S(b1-3)GlcNAc": {"target": "Gal3S(b1-3)GlcNAc", "how_it_was_run": "as §1"}, "[12]": {"target": "Gal3S(b1-3)[Fuc(a1-4)]GlcNAc", "how_it_was_run": "as §1"}, "Gal3S(b1-4)Glc": {"target": "Gal3S(b1-4)Glc", "how_it_was_run": "as §1"}, "Gal3S(b1-4)Glc6S": {"target": "Gal3S(b1-4)Glc6S", "how_it_was_run": "as §1"}, "Gal3S(b1-4)GlcNAc": {"target": "Gal3S(b1-4)GlcNAc", "how_it_was_run": "as §1"}, "[13]": {"target": "Gal3S(b1-4)[Fuc(a1-3)]Glc6S", "how_it_was_run": "as §1"}, "[14]": {"target": "Gal3S(b1-4)[Fuc(a1-3)]GlcNAc", "how_it_was_run": "as §1"}, "[15]": {"target": "Gal3S(b1-4)[Fuc(a1-3)]GlcNAc6S", "how_it_was_run": "as §1"}, "Gal3S4S(b1-4)GlcNAc": {"target": "Gal3S4S(b1-4)GlcNAc", "how_it_was_run": "as §1"}, "Gal3S6S(b1-4)GlcNAc": {"target": "Gal3S6S(b1-4)GlcNAc", "how_it_was_run": "as §1"}, "Gal3S6S(b1-4)GlcNAc6S": {"target": "Gal3S6S(b1-4)GlcNAc6S", "how_it_was_run": "as §1"}, "Gal4S(b1-4)GlcNAc": {"target": "Gal4S(b1-4)GlcNAc", "how_it_was_run": "as §1"}, "Gal4S6S(b1-4)GlcNAc": {"target": "Gal4S6S(b1-4)GlcNAc", "how_it_was_run": "as §1"}, "Gal6P(b1-4)GlcNAc": {"target": "Gal6P(b1-4)GlcNAc", "how_it_was_run": "as §1"}, "Gal6S(b1-3)GlcNAc": {"target": "Gal6S(b1-3)GlcNAc", "how_it_was_run": "as §1"}, "Gal6S(b1-3)GlcNAc6S": {"target": "Gal6S(b1-3)GlcNAc6S", "how_it_was_run": "as §1"}, "Gal6S(b1-4)Glc": {"target": "Gal6S(b1-4)Glc", "how_it_was_run": "as §1"}, "Gal6S(b1-4)Glc6S": {"target": "Gal6S(b1-4)Glc6S", "how_it_was_run": "as §1"}, "Gal6S(b1-4)GlcNAc": {"target": "Gal6S(b1-4)GlcNAc", "how_it_was_run": "as §1"}, "Gal6S(b1-4)GlcNAc6S": {"target": "Gal6S(b1-4)GlcNAc6S", "how_it_was_run": "as §1"}, "GalNAc(a1-3)Gal": {"target": "GalNAc(a1-3)Gal", "how_it_was_run": "as §1"}, "GalNAc(a1-3)GalNAc": {"target": "GalNAc(a1-3)GalNAc", "how_it_was_run": "as §1"}, "[16]": {"target": "GalNAc(a1-3)GalNAc(b1-3)Gal(a1-4)Gal(b1-4)Glc", "how_it_was_run": "as §1"}, "[17]": {"target": "GalNAc(a1-3)GalNAc(b1-3)Gal(a1-4)Gal(b1-4)GlcNAc", "how_it_was_run": "as §1"}, "GalNAc(b1-3)Gal": {"target": "GalNAc(b1-3)Gal", "how_it_was_run": "as §1"}, "[18]": {"target": "GalNAc(b1-3)Gal(a1-4)Gal(b1-4)GlcNAc", "how_it_was_run": "as §1"}, "[19]": {"target": "GalNAc(b1-3)Gal(a1-4)Gal(b1-4)GlcNAc(b1-3)Gal(b1-4)Glc", "how_it_was_run": "as §1"}, "[20]": {"target": "GalNAc(b1-3)Gal(a1-6)Gal(b1-4)Glc", "how_it_was_run": "as §1"}, "GalNAc(b1-3)GalNAc": {"target": "GalNAc(b1-3)GalNAc", "how_it_was_run": "as §1"}, "GalNAc(b1-3)GlcNAc": {"target": "GalNAc(b1-3)GlcNAc", "how_it_was_run": "as §1"}, "GalNAc(b1-4)Gal(b1-4)Glc": {"target": "GalNAc(b1-4)Gal(b1-4)Glc", "how_it_was_run": "as §1"}}, "note": "This is one part of the list.", "data": [{"binder": "B1", "values": [{"measurement": "glycan array binding signal (z-score)", "setting": "[1]", "value": 0.143}, {"measurement": "glycan array binding signal (z-score)", "setting": "[2]", "value": 0.781}, {"measurement": "glycan array binding signal (z-score)", "setting": "[3]", "value": -0.13}, {"measurement": "glycan array binding signal (z-score)", "setting": "[4]", "value": -0.111}, {"measurement": "glycan array binding signal (z-score)", "setting": "[5]", "value": -0.299}, {"measurement": "glycan array binding signal (z-score)", "setting": "[6]", "value": -0.139}, {"measurement": "glycan array binding signal (z-score)", "setting": "[7]", "value": -0.253}, {"measurement": "glycan array binding signal (z-score)", "setting": "[8]", "value": 0.08}, {"measurement": "glycan array binding signal (z-score)", "setting": "[9]", "value": 0.004}, {"measurement": "glycan array binding signal (z-score)", "setting": "[10]", "value": 1.55}, {"measurement": "glycan array binding signal (z-score)", "setting": "[11]", "value": 0.018}, {"measurement": "glycan array binding signal (z-score)", "setting": "Gal(b1-4)GlcNAc6P", "value": -0.237}, {"measurement": "glycan array binding signal (z-score)", "setting": "Gal(b1-6)Gal", "value": 0.31}, {"measurement": "glycan array binding signal (z-score)", "setting": "Gal3S(b1-3)GalNAc", "value": -0.244}, {"measurement": "glycan array binding signal (z-score)", "setting": "Gal3S(b1-3)GlcNAc", "value": -0.282}, {"measurement": "glycan array binding signal (z-score)", "setting": "[12]", "value": -0.167}, {"measurement": "glycan array binding signal (z-score)", "setting": "Gal3S(b1-4)Glc", "value": -0.311}, {"measurement": "glycan array binding signal (z-score)", "setting": "Gal3S(b1-4)Glc6S", "value": -0.267}, {"measurement": "glycan array binding signal (z-score)", "setting": "Gal3S(b1-4)GlcNAc", "value": -0.261}, {"measurement": "glycan array binding signal (z-score)", "setting": "[13]", "value": 0.629}, {"measurement": "glycan array binding signal (z-score)", "setting": "[14]", "value": -0.246}, {"measurement": "glycan array binding signal (z-score)", "setting": "[15]", "value": -0.242}, {"measurement": "glycan array binding signal (z-score)", "setting": "Gal3S4S(b1-4)GlcNAc", "value": -0.32}, {"measurement": "glycan array binding signal (z-score)", "setting": "Gal3S6S(b1-4)GlcNAc", "value": -0.204}, {"measurement": "glycan array binding signal (z-score)", "setting": "Gal3S6S(b1-4)GlcNAc6S", "value": -0.005}, {"measurement": "glycan array binding signal (z-score)", "setting": "Gal4S(b1-4)GlcNAc", "value": -0.228}, {"measurement": "glycan array binding signal (z-score)", "setting": "Gal4S6S(b1-4)GlcNAc", "value": -0.239}, {"measurement": "glycan array binding signal (z-score)", "setting": "Gal6P(b1-4)GlcNAc", "value": -0.3}, {"measurement": "glycan array binding signal (z-score)", "setting": "Gal6S(b1-3)GlcNAc", "value": -0.146}, {"measurement": "glycan array binding signal (z-score)", "setting": "Gal6S(b1-3)GlcNAc6S", "value": -0.092}, {"measurement": "glycan array binding signal (z-score)", "setting": "Gal6S(b1-4)Glc", "value": 0.321}, {"measurement": "glycan array binding signal (z-score)", "setting": "Gal6S(b1-4)Glc6S", "value": 1.11}, {"measurement": "glycan array binding signal (z-score)", "setting": "Gal6S(b1-4)GlcNAc", "value": -0.027}, {"measurement": "glycan array binding signal (z-score)", "setting": "Gal6S(b1-4)GlcNAc6S", "value": 0.633}, {"measurement": "glycan array binding signal (z-score)", "setting": "GalNAc(a1-3)Gal", "value": -0.222}, {"measurement": "glycan array binding signal (z-score)", "setting": "GalNAc(a1-3)GalNAc", "value": -0.242}, {"measurement": "glycan array binding signal (z-score)", "setting": "[16]", "value": -0.264}, {"measurement": "glycan array binding signal (z-score)", "setting": "[17]", "value": -0.281}, {"measurement": "glycan array binding signal (z-score)", "setting": "GalNAc(b1-3)Gal", "value": -0.194}, {"measurement": "glycan array binding signal (z-score)", "setting": "[18]", "value": -0.287}, {"measurement": "glycan array binding signal (z-score)", "setting": "[19]", "value": -0.344}, {"measurement": "glycan array binding signal (z-score)", "setting": "[20]", "value": -0.194}, {"measurement": "glycan array binding signal (z-score)", "setting": "GalNAc(b1-3)GalNAc", "value": -0.164}, {"measurement": "glycan array binding signal (z-score)", "setting": "GalNAc(b1-3)GlcNAc", "value": -0.221}, {"measurement": "glycan array binding signal (z-score)", "setting": "GalNAc(b1-4)Gal(b1-4)Glc", "value": -0.137}]}]}
